Test results published in PubChem BioAssay AID686971 (National Center for Advancing Translational Sciences (NCATS), 2013).
The whole screen tested about 360,000 compounds, of which about 7,500 (2.1%) were called active. Inconclusive means that the source gave no clear call. Such entries were picked first, then a sample of the others. The call rests on the fitted dose curve; in most records, active means well fitted cell-killing curve with a large enough effect; inconclusive means small, poorly fitted or top-dose-only effect, or effect the other way, or another doubt; inactive means no such curve, though single readings can be large or run the other way. Potencies of inconclusive entries are left out as doubtful fits.

Assay: qHTS for induction of synthetic lethality in tumor cells producing 2HG: qHTS for the HT-1080-IDH1KD cell line;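 on activity, negative = toxicity: 0% = DMSO wells and -100% = cell-free medium wells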
Conditions: HT-1080 IDH1 knockdown viability, ATP luminescence, 48 h; activity, negative = toxicity: at 46.1 µM (top of the series) unless noted
Outline: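 % activity derives from luminescence (CellTiter-Glo), normalised to DMSO and no-cell wells. HT-1080-IDH1KD cells, 750/well, had 48 h compound exposure at 37 °C.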
Potency means the concentration at half of the fitted maximal effect; tags describe the fitted curve by direction and shape.

With `Cc1sc(NC(=O)CN2CCCC2)nc1-c1ccc2c(c1)CCN2C(=O)c1cccc(F)c1` as the compound, how does the Potency read?
The Potency was inconclusive [cytotoxic, single point].

With `CCOC(=O)CSc1nnc2cc(C)c3ccccc3n12` as the compound, how does the activity, negative = toxicity read?
The activity, negative = toxicity was inconclusive: 30.7%.

Which Potency does the source give for `Cc1ccc(OCC(=O)Nc2ccc(NC(=O)c3ccccc3)cc2)cc1C` here?
Its Potency is “inactive”.

Which Potency does the source give for `CCN(CC)CCn1c(=S)[nH]c2cc(C(=O)NCc3ccc(C)cc3)ccc2c1=O` here?
Its Potency is “inactive”.

For `OC(c1ccco1)c1nc(-c2ccc(F)c(Cl)c2)cs1` (stereo unspecified), which Potency is on record?
Its Potency is inconclusive [cytotoxic, single point].

For `O=C(CNC(=O)c1cc(-c2ccccc2)nn1-c1ccccc1)Nc1ccccc1Br`, which Potency is on record?
The Potency was “inactive”.

Which Potency does the source give for `CCC(NC(=O)c1ccccc1NC(=O)c1ccco1)C(=O)NNC(=O)c1ccc(OC)cc1` (stereo unspecified) here?
The Potency was inconclusive [cytotoxic, single point].

With `CC1CCc2c(sc3ncn(CC(=O)N=Nc4c(O)[nH]c5ccccc45)c(=O)c23)C1` (stereo unspecified) as the compound, how does the Potency read?
Its Potency is “inactive”.

For `CCCCn1c(=O)[nH]c(=O)c2c1nc(-c1ccc(OC)c(Br)c1)n2CC(C)C`, which Potency is on record?
Its Potency is active: 23.1 µM.

With `CC(C)c1ccc2c(c1)CCC1C(C)(CN)CCCC21C` (stereo unspecified) as the compound, how does the Potency read?
Its Potency is active: 20.6 µM.

For `C=Cc1ccc(Cn2c(=O)n(C)c(=O)c3sccc32)cc1`, which activity, negative = toxicity is on record?
Its activity, negative = toxicity is inconclusive: -31.4% [cytotoxic].

With `CCOc1ccc(Br)cc1S(=O)(=O)Nc1ccc(NC(=O)c2ccccc2F)cc1` as the compound, how does the Potency read?
The Potency was “inactive”.

For `COc1ccc(NC(=O)CSc2nnc(Cc3cccs3)n2-c2ccc(C)cc2)cc1`, which Potency is on record?
Its Potency is “inactive”.

Which Potency does the source give for `CCOC(=O)c1[nH]c2ccc(OC)cc2c1NC(=S)N1CCN(c2cccc(C)c2C)CC1` here?
Its Potency is inconclusive [cytotoxic, partial curve].

For `COc1cccc(CCN2C(=O)CCC3=C2CCC3=O)c1`, which Potency is on record?
The Potency was “inactive”.

Which Potency does the source give for `Cn1c(=O)c2cc(NC(=O)NCCc3ccccc3)ccc2n1Cc1cccc(C(F)(F)F)c1` here?
Its Potency is inconclusive [cytotoxic, single point].

Which Potency does the source give for `CN(CCOCCOc1ccc(Cl)cc1Br)Cc1ccccc1` here?
Its Potency is inconclusive [cytotoxic, single point].

Which Potency does the source give for `O=C(O)CCCN1C(=O)/C(=C\c2ccccc2OCc2ccccc2)SC1=S` here?
The Potency was “inactive”.

Which Potency does the source give for `Cc1cc(C2=NNC(=NC3CC3)SC2)c(C)n1Cc1ccco1` here?
Its Potency is active: 7.31 µM.

With `OC(c1ccc(F)c(F)c1)c1nc(-c2ccc(F)c(Cl)c2)cs1` (stereo unspecified) as the compound, how does the Potency read?
The Potency was inconclusive [cytotoxic, single point].

With `Ic1ccc(N2CCN(Cc3c[nH]c4ncccc34)CC2)cc1` as the compound, how does the Potency read?
Its Potency is inconclusive [cytotoxic, partial curve].

Which Potency does the source give for `Cc1ccc(C(=O)c2c(C)oc3c2C(=O)C(=O)c2ccccc2-3)cc1` here?
Its Potency is inconclusive [cytotoxic, single point].

For `CC(C)Oc1ccc(C(=O)Nc2nc3ccccc3[nH]2)cc1`, which Potency is on record?
Its Potency is inconclusive [cytotoxic, partial curve].

Which Potency does the source give for `O=C1CN(c2nc(-c3cccs3)nc3sc4c(c23)CCCC4)CCN1` here?
Its Potency is active: 13 µM.

Which Potency does the source give for `COc1ccc(-n2nnnc2C(c2ccccc2)N2CCN(C/C=C/c3ccccc3)CC2)cc1` (stereo unspecified) here?
The Potency was inconclusive [cytotoxic, single point].

With `CC1=NN(c2ccc(Cl)cc2)C(=O)C1C(c1cccc(O)c1)c1c(C)[nH]n(-c2ccc(Cl)cc2)c1=O` (stereo unspecified) as the compound, how does the Potency read?
The Potency was inconclusive [cytotoxic, single point].

With `COc1ccc(/C=N\NS(=O)(=O)c2ccc(C)cc2)cc1COc1ccccc1[N+](=O)[O-]` as the compound, how does the Potency read?
Its Potency is “inactive”.

For `CS(=O)(=O)N(CC(=O)Nc1ccccc1Sc1ccccc1)c1cccc(Br)c1`, which Potency is on record?
The Potency was inconclusive [cytotoxic, single point].

For `COc1ccc(NC(=O)Nc2cccc(Cl)c2Cl)c(OC)n1`, which activity, negative = toxicity is on record?
Its activity, negative = toxicity is inconclusive: -19% [cytotoxic].

Which Potency does the source give for `CCn1nnc(NC(=S)NC(=O)c2ccc(-c3cccc(Cl)c3)o2)n1` here?
Its Potency is inconclusive [cytotoxic, single point].

With `COc1ccc(OC)c(S(=O)(=O)Nc2ccc(-c3ccc4nnc(C)n4n3)cc2)c1` as the compound, how does the Potency read?
The Potency was inconclusive [cytotoxic, partial curve, poor fit].

For `Cc1ccc2c(C)nc(Nc3nc(CSc4nnc(C)s4)cc(=O)[nH]3)nc2c1`, which Potency is on record?
The Potency was inconclusive [cytotoxic, single point].

For `O=[N+]([O-])c1ccc(N=NNc2ccccc2)cc1`, which Potency is on record?
Its Potency is inconclusive [cytotoxic, single point].

With `Cc1cccc(CSC2=NCCN2C(=O)c2ccco2)c1` as the compound, how does the Potency read?
Its Potency is “inactive”.

Which Potency does the source give for `FC(F)(F)c1cccc(NC(=S)Nc2ccc(Cl)cc2Cl)c1` here?
The Potency was inconclusive [cytotoxic, single point].

Which Potency does the source give for `O=C(Nc1ccc([N+](=O)[O-])cc1)c1cc(Cl)sc1Cl` here?
The Potency was “inactive”.

Which Potency does the source give for `COc1ccc(NC(=O)c2cccnc2)c([N+](=O)[O-])c1` here?
Its Potency is inconclusive [cytotoxic, single point].

With `CC(C)(C)c1ccc(NC(=O)C(=O)C2C(=O)Nc3ccccc32)cc1` (stereo unspecified) as the compound, how does the Potency read?
Its Potency is “inactive”.

For `Cn1c(CCNC(=O)c2ccccc2)nc2cc(NC(=O)C3CCCCC3)ccc21`, which Potency is on record?
Its Potency is inconclusive [cytotoxic, single point].

With `COc1ccc2[nH]c(=O)c(CN(CCO)C(=O)c3ccccc3F)cc2c1` as the compound, how does the Potency read?
The Potency was “inactive”.

Which Potency does the source give for `COc1ccc(CNc2nc(S(=O)(=O)c3ccccc3)c(Cl)s2)cc1OC` here?
The Potency was inconclusive [cytotoxic, single point].

With `CCOC(=O)CSC1=C(C#N)C(c2ccco2)C(C(=O)Nc2cccc(C(F)(F)F)c2)=C(C)N1` (stereo unspecified) as the compound, how does the Potency read?
The Potency was inconclusive [cytotoxic, single point].

For `O=C1c2cccc3c(N4CCCCC4)ccc(c23)C(=O)N1c1cccc(O)c1`, which Potency is on record?
Its Potency is inconclusive [cytotoxic, partial curve].

With `O=C(Nc1ccccc1N1CCCC1)c1ccc([N+](=O)[O-])o1` as the compound, how does the Potency read?
Its Potency is inconclusive [cytotoxic, single point].

For `O=C1Nc2ccc(Br)cc2C1=Nc1cccnc1`, which Potency is on record?
The Potency was inconclusive [cytotoxic, partial curve, poor fit].

With `CN1C/C(=C/c2cccnc2)C(=O)/C(=C/c2cccnc2)C1` as the compound, how does the Potency read?
Its Potency is inconclusive [cytotoxic, full curve].

With `CCN(CC)S(=O)(=O)c1cccc(C(=O)N/N=C(\C)c2ccc(O)cc2O)c1` as the compound, how does the Potency read?
Its Potency is active: 1.46 µM.

With `CC1(C(=O)Nc2cccc(OC(F)(F)F)c2)Cc2c(-c3ccc(C(N)=O)cc3)ccnc2O1` (stereo unspecified) as the compound, how does the Potency read?
The Potency was inconclusive [cytotoxic, single point].

With `CCc1ccc(-n2c(SCc3cc(=O)n4cc(Br)ccc4n3)nc3[nH]ncc3c2=O)cc1` as the compound, how does the Potency read?
Its Potency is active: 18.4 µM.

For `O=C(N/N=C/c1ccc2c(c1)OCO2)c1ccc2c(c1)OCCO2`, which Potency is on record?
Its Potency is active: 23.1 µM.

With `CC(=O)C(=Nc1ccc(Cl)cc1Cl)NNc1cccc(Cl)c1` as the compound, how does the Potency read?
Its Potency is inconclusive [cytotoxic, single point].

Which Potency does the source give for `CCOC(=O)C1(C)CCCN(C(=O)C(c2ccccc2)c2ccccc2)C1` (stereo unspecified) here?
Its Potency is “inactive”.

For `Cc1ccc(-c2n[nH]c(=S)n2Cc2ccccc2)cc1`, which Potency is on record?
Its Potency is inconclusive [cytotoxic, single point].

For `COc1ccc(CCn2c(Br)nc3c2c(=O)[nH]c(=O)n3C)cc1`, which Potency is on record?
The Potency was active: 10 µM.

Which Potency does the source give for `O=C1[C@H]2[C@@H](c3ccccc3)N[C@]3(CCCN(Cc4ccc(C(F)(F)F)cc4)C3=O)[C@H]2C(=O)N1Cc1ccccc1` here?
The Potency was inconclusive [cytotoxic, single point].

For `COCC(C)n1c(SCc2nc3ccccc3c(=O)[nH]2)nc2ccccc2c1=O` (stereo unspecified), which Potency is on record?
Its Potency is inconclusive [cytotoxic, full curve, poor fit].

For `O=C(CCCn1c(SCC(=O)c2ccc(O)c(O)c2)nc2ccccc2c1=O)NCC1CCCO1` (stereo unspecified), which Potency is on record?
Its Potency is inconclusive [cytotoxic, single point].

For `CC1CCN(c2nc3ccc(C(=O)NCCCN4CCCCC4C)cc3s2)CC1` (stereo unspecified), which Potency is on record?
The Potency was inconclusive [cytotoxic, single point].

Which Potency does the source give for `COc1ccc(-n2c(-c3ccc(Cl)cc3)c[n+]3c2CCc2ccccc2-3)cc1` here?
The Potency was active: 8.2 µM.

Which Potency does the source give for `O=NN(CCCl)C(=O)NCC1=C[N+](=O)CC=C1` here?
Its Potency is “inactive”.

Which Potency does the source give for `COc1cccc(-c2cnc3c(NC(C)=O)cc(-c4cccc(C(=O)NCCN(C)C)c4)cn23)c1` here?
Its Potency is inconclusive [cytotoxic, single point].

With `NS(=O)(=O)c1ccc(CCNCC(=O)NC2CC2)cc1` as the compound, how does the Potency read?
The Potency was “inactive”.

With `O=S1(=O)CC(N2CC=CC2)CN1Cc1cn(Cc2cccc(Cl)c2)nn1` (stereo unspecified) as the compound, how does the Potency read?
Its Potency is “inactive”.

For `O=C(/C=C/c1ccc(N2CCCCC2)c([N+](=O)[O-])c1)c1ccc(O)cc1`, which Potency is on record?
The Potency was active: 18.4 µM.

For `Brc1ccc(-c2nc3ccc(Br)cn3c2Cc2ccccc2)cc1`, which Potency is on record?
The Potency was inconclusive [cytotoxic, single point].

Which Potency does the source give for `COc1ccc(Br)cc1CN(C)CC(=O)NCCc1ccc(S(N)(=O)=O)cc1` here?
Its Potency is “inactive”.

Which Potency does the source give for `COc1ccccc1-c1nnc2sc(-c3cc4ccccc4o3)nn12` here?
Its Potency is active: 1.46 µM.

For `Cc1ccc2nc(C3CCCCC3)c(Cc3ccsc3)n2c1`, which Potency is on record?
The Potency was inconclusive [cytotoxic, single point].

With `N#CCc1ccc(NS(=O)(=O)c2ccc(C3CCCCC3)cc2)cc1` as the compound, how does the Potency read?
The Potency was inconclusive [cytotoxic, single point].

Which Potency does the source give for `CC(C)c1ccc(-n2c(-c3ccccc3)c[n+]3c2CCc2ccccc2-3)cc1` here?
Its Potency is active: 7.31 µM.

Which activity, negative = toxicity does the source give for `O=C(c1ccccc1)c1ccsc1C(=O)c1ccccc1` here?
Its activity, negative = toxicity is inconclusive: -9.72% [cytotoxic].
